Measured values reported in patent US8153787B2 (priority 2005, dated 2012).
Converted amounts (≈) assume the structure as drawn. Like-named read-outs stand apart in the source and are kept apart here.

What was measured:
HHV-6A, strain GS = test: microbe, parasite or virus in culture; format: cell-based, human herpesvirus 6
HHV-6B, strain Z29 = test: microbe, parasite or virus in culture; format: cell-based, human herpesvirus 6
human adenovirus type 2 [1] = test: microbe, parasite or virus in culture; settings: Human mastadenovirus C, HEL
human adenovirus type 2 [2] = test system: human adenovirus type 2
[3] = Human betaherpesvirus 6, HSB2, read-out: Antiviral activity EC50 (CPE), HHV-6A
[4] = Human betaherpesvirus 6, HSB2, read-out: Antiviral activity EC50 (qPCR), HHV-6A
[5] = Human betaherpesvirus 6, MOLT-3, read-out: Antiviral activity EC50 (CPE), HHV-6B
[6] = Human betaherpesvirus 6, MOLT-3, read-out: Antiviral activity EC50 (qPCR), HHV-6B
[7] = read-out: Antiviral activity EC50 (CPE)
[8] = read-out: Antiviral activity EC50 (MTS)

## Nc1ccn(C[C@@H](CO)OCP(=O)(O)O)c(=O)n1 [HPMPC, (S)-1-(3-hydroxy-2-phosphonylmethoxypropyl)cytosine, reference compound]
HHV-6A, strain GS; [3]
  EC50: 3.9 µg/mL (≈ 14 µM)
HHV-6A, strain GS; [4]
  EC50: 2.1 µg/mL (≈ 7.52 µM)
HHV-6B, strain Z29; [5]
  EC50: 0.84 µg/mL (≈ 3.01 µM)
HHV-6B, strain Z29; [6]
  EC50: 0.56 µg/mL (≈ 2.01 µM)
Human adenovirus type 2 [1]; [7]
  EC50: 1.4 µg/mL (≈ 5.01 µM)
Human adenovirus type 2 [1]; [8]
  EC50: 3.2 µg/mL (≈ 11.5 µM)

## NC(=NC(=O)NC[C@@H](CO)OCP(=O)(O)O)NC=O.[Na] [Compound 3a, Sodium 3-formyl-2-{[(2S)-3-hydroxy-2-(phosphono-methoxy)propyl]carbamoyl}guanidine]
HHV-6A, strain GS; [3]
  EC50: 5.8 µg/mL
HHV-6A, strain GS; [4]
  EC50: 20.8 µg/mL
HHV-6B, strain Z29; [5]
  EC50: 3.6 µg/mL
HHV-6B, strain Z29; [6]
  EC50: 5.5 µg/mL
Human adenovirus type 2 [1]; [7]
  EC50: 11.3 µg/mL
Human adenovirus type 2 [1]; [8]
  EC50: 31.8 µg/mL

## Nc1ncn(C[C@@H](CO)OCP(=O)(O)O)c(=O)n1 [Compound 3, (S)-1-[3-hydroxy-2-(Phosphonomethoxy)propyl]-5-azacytosine]
HHV-6A, strain GS; [3]
  EC50: 0.55 µg/mL (≈ 1.96 µM)
HHV-6A, strain GS; [4]
  EC50: 0.56 µg/mL (≈ 2 µM)
HHV-6B, strain Z29; [5]
  EC50: 0.23 µg/mL (≈ 0.821 µM)
HHV-6B, strain Z29; [6]
  EC50: 0.34 µg/mL (≈ 1.21 µM)
Human adenovirus type 2 [2]
  activity against Ad2 compared with cidofovir: clearly more active
Human adenovirus type 2 [1]; [7]
  EC50: 0.6 µg/mL (≈ 2.14 µM)
Human adenovirus type 2 [1]; [8]
  EC50: 1.1 µg/mL (≈ 3.93 µM)

## NC(N)=NC(=O)NC[C@@H](CO)OCP(=O)(O)O [Compound 10, 2-{[(2S)-3-Hydroxy-2-(Phosphonomethoxy)propyl]carbamoyl}guanidine]
HHV-6A, strain GS; [3]
  EC50: > 200 µg/mL
